Test results: ChEMBL document CHEMBL1201862, “PubChem BioAssay data set” (2004)
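Interpolation was linear, between the two tested concentrations surrounding the appropriate level; five concentrations were tested over 48 hours in 96-well plates. GI50 marks 50% less growth.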 Activity calls are given as the source filed them. No stated cut-off is given here; in the data, active = GI50 up to about 1.1 µM and inactive = higher.

The molecules below were run on NCI-H322M (assay: NCI anticancer screen, dose series, 48 h).

| Compound | GI50 |
| --- | --- |
| O=C(O)CCCOc1cc(-c2ccccc2F)nc2cc3c(cc12)OCO3 | inactive: 22.8 µM |
| Clc1ccccc1NN(Cc1ccccn1)c1ccccc1Cl | inactive: 22.4 µM |
| O=C(Nc1cnc(O)nc1O)Oc1ccccc1 | inactive: > 100 µM |
| Nc1nc(-c2ccccc2)c(-c2ccccc2)c(-c2nc(N)nc(-c3ccccc3)c2-c2ccccc2)n1 | inactive: 90.2 µM |
| O=C1CC(C(O)C(O)C(O)CO)CC(=O)N1 (stereo not drawn) | inactive: > 100 µM |
| CC1(C)C(=O)C2(OS(=O)(=O)C(F)(F)F)CCC1C2 (stereo not drawn) | inactive: > 100 µM |
| CC(=O)O/N=C/c1ncccc1OC(C)=O | inactive: > 100 µM |
| CC(=O)O/C(=C(/C#N)C(=O)O)C1C(C(=O)O)C(c2ccccc2[N+](=O)[O-])C=C(c2ccco2)N1c1ccncc1 (stereo not drawn) | inactive: 8.67 µM |
| NC12CC3CC(C1)CC(C(=O)O)(C3)C2 | inactive: > 100 µM |
| CCOC(=O)/C([O-])=C(\C(=O)OCC)[n+]1c(C)n(C)c2ccccc21 | inactive: > 100 µM |
| CN(C)c1ccc(-c2ccc(N(C)C)c3n[se]nc23)c2n[se]nc12 | inactive: > 100 µM |
| CCSc1c2ccccc2nc2c(OC)ccc(OC)c12 | inactive: 25.9 µM |
| Cn1c2ccccc2c2c3c(c4c5ccccc5n(C)c4c21)C(=O)N(Cc1ccccc1)C3=O | inactive: > 100 µM |
| COc1ccc(C2(Cl)C(Cl)(C(F)(F)F)C2(Cl)C(F)(F)F)cc1 (stereo not drawn) | inactive: 16.2 µM |
| Oc1nc(S)nc2nc3c4cccnc4c4ccccc4c3nc12 | inactive: > 100 µM |
| COC12CC(O)=C(C(C)=O)C(=O)C1(C)c1c(OC(C)=O)c(C)c(O)c(C(C)=O)c1O2 (stereo not drawn) | inactive: 13.2 µM |
| C/C=C(\C)CC/C=C/CO[Si](C)(C)C(C)(C)C | inactive: > 100 µM |
| C1CCN(c2nsc(N3CCCCC3)n2)CC1 | inactive: > 100 µM |
| COC(=O)/C=C1/OC(c2ccccc2)=C(C)C1=O | inactive: 17.7 µM |
| COC1CC(OC)C(O)C(CO)O1 (stereo not drawn) | inactive: > 100 µM |
| COC(=O)/C(C#N)=C1\CCC(OC)N1C (stereo not drawn) | inactive: > 100 µM |
| Cc1ccc2c(c1)nc(N)n[n+]2[O-] | inactive: > 100 µM |
| CN(C)C1(C(=O)O)CC1 | inactive: > 100 µM |

| Compound | GI50 |
| --- | --- |
| CN(C)CCCNc1ccc2nnn3c4ccc(OC(=O)c5ccccc5)cc4c(=O)c1c23 | inactive: 4.11 µM |
| COc1nc(-c2c[nH]c3ccccc23)cnc1N | inactive: 35.7 µM |
| NC(Cc1ccc2oc3cc(=O)c4ccccc4c-3nc2c1)C(=O)O (stereo not drawn) | inactive: 18.6 µM |
| CCOC(=O)C12CCC(=O)C=C1[C@@H](C)C(=O)CC2 (stereo partly drawn) | inactive: > 100 µM |
| O=P1(C(O)c2ccccc2)N(Cc2ccccc2)[C@@H]2CCCC[C@H]2N1Cc1ccccc1 (stereo partly drawn) | inactive: 31 µM |
| CCOC(=O)/C=C(/C(=O)OCC)n1c(=O)c(C)cn(C2CC(N=[N+]=[N-])C(CO)O2)c1=O (stereo not drawn) | inactive: 69 µM |
| CCN(CC)c1ccc(/C=C/C2=NN(c3cccc(S(=O)(=O)O)c3)C3(C2)SCC(=O)N3c2nc3ccccc3s2)cc1 (stereo not drawn) | inactive: 61 µM |
| Cn1c2c(c3c(=O)[nH]ncc31)Cc1ccccc1-2 | inactive: 10.9 µM |
| O=C(COc1ccc(Cl)cc1)N1N=C(c2ccc(Cl)cc2)CC1(O)c1ccccc1 (stereo not drawn) | inactive: 17 µM |
| C/C(=N\Nc1nc2cc(C(F)(F)F)ccc2s1)c1ccccn1 | active: 0.362 µM |
| CC1(C)C2CC(=O)C1(C)C(O)C2Br (stereo not drawn) | inactive: > 100 µM |
| COC(=O)CC1(O)C(/C=C/c2ccccc2)C(C(=O)OC)C(=O)C(C(=O)OC)C1C(=O)OC (stereo not drawn) | inactive: > 100 µM |
| NC(N)NCCCc1cn2c(n1)C1CCCN1C(=O)C2Cc1ccccc1 (stereo not drawn) | inactive: > 100 µM |
| CCCCC1(OC(=O)CCC(=O)O)CCC2(CCC(C)C(C/C=C(C)/C=C/C(O)C(C)/C=C/C(=O)O)O2)OC1CC/C(C)=C/C(=O)O (stereo not drawn) | inactive: 3.64 µM |
| Nc1ccc(C(=O)NN2C(=O)C(Cl)C2c2ccc(O)cc2)cc1 (stereo not drawn) | inactive: 17.4 µM |
| O=C1/C(=C/c2cccc([N+](=O)[O-])c2)Sc2scc(-c3ccc([N+](=O)[O-])cc3)[n+]21 | inactive: 27.3 µM |
| COC(=O)c1cccc(C)c1C1CN=NC12Cc1c(ccc(C)c1C)C2=O (stereo not drawn) | inactive: 75.2 µM |
| Cc1c2c3cc(O)ccc3nc-2n(C)c2ccccc12 | inactive: 1.65 µM |
| OCCSCc1cc2c(O)c(c1)Cc1cc(CSCCO)cc(c1O)Cc1cc(CSCCO)cc(c1O)Cc1cc(CSCCO)cc(c1O)C2 | inactive: 7.05 µM |
| Cc1nc2ccccc2c(=O)n1NC(=O)c1ccc(CS)cc1 | inactive: 47.8 µM |
| O=c1/c(=C/c2cccc3ccccc23)sc2nc3ccccc3n12 | inactive: > 100 µM |
| CN(C)CCN1C(=O)CC[C@@]2(C)C1=CC[C@@H]1[C@@H]2CC[C@@]2(C)[C@H]1CC[C@]2(C)O | inactive: > 100 µM |
| COC1=CC(=O)C(Br)=CC1=O | inactive: > 100 µM |

| Compound | GI50 |
| --- | --- |
| COC(=O)C1=CC(=O)C(C(=O)Nc2ccc(OC)cc2)C(c2ccccc2)O1 (stereo not drawn) | inactive: 44.2 µM |
| O=c1n(CCCN2CCN(c3cccc(Cl)c3)CC2)nc2n1-c1ccc3ccccc3c1SC2 | inactive: > 100 µM |
| COC1OC2COC(c3ccccc3)OC2C(OC(=S)c2ccccc2)C1O (stereo not drawn) | inactive: 23.3 µM |
| CC1=N[C@@](C)(C2CC3C=CC2C3=O)COC1=O (stereo partly drawn) | inactive: > 100 µM |
| CC(C)C1CC(CO)(CNc2nc(N)nc(Cl)c2C=O)C1 (stereo not drawn) | inactive: 4.89 µM |
| Cc1ccc(Cc2n[nH]c(=O)[nH]2)cc1 | inactive: > 100 µM |
| Brc1ccccc2cc(-c3ccccc3)nc1-2 | inactive: 14.7 µM |
| Nc1csc(-c2scc3c2OCCO3)c1N | inactive: 32.3 µM |
| O=C(NCCO)c1c(O)c2ccccc2[nH]c1=O | inactive: > 100 µM |
| CCCCCCCCCCCOc1ccc(C(=O)C(=O)c2ccc(OCCCCCCCCCCC)c(OCCCCCCCCCCC)c2)cc1OCCCCCCCCCCC | inactive: > 100 µM |
| Cc1c2c(OCC(O)CN3CCN(c4ccccc4)CC3)nn(C)c(=O)c2c(C)n1-c1ccccc1 (stereo not drawn) | inactive: 39.6 µM |
| NC(N)=NCc1ccc2c(c1)OCO2 | inactive: > 100 µM |
| Cc1cc2c(c(S(=O)(=O)c3ccccc3[N+](=O)[O-])c1)NCCC2 | inactive: > 100 µM |
| CO[C@]12C#CC=CC#C[C@@H](O)[C@]3(CCC1)O[C@@]23c1cccc(O)c1 | inactive: > 100 µM |
| CC(C)(C)CC(C)(C)NCC(O)COc1ccc(C(C)(C)c2ccc(OCC(O)CNC(C)(C)CC(C)(C)C)cc2)cc1 (stereo not drawn) | inactive: 1.71 µM |
| COC(=O)/C(C#N)=C1\NC(=O)CC(c2ccccc2)C1C#N (stereo not drawn) | inactive: > 100 µM |
| CC(NNC(=O)c1ccc[n+]([BH2-]C#N)c1)c1ccccc1 (stereo not drawn) | inactive: > 100 µM |
| CC1O[C@@H]2CCCCC(=O)[C@]2(C)[C@H]1C (stereo partly drawn) | inactive: > 100 µM |
| COc1ccc(/C=C2\CN(C)Cc3c2nc(O)c(C#N)c3-c2ccc(OC)cc2)cc1 | inactive: > 100 µM |
| C[n+]1c(/C=C/c2ccc(/C=N/NC(=O)c3ccc(C(=O)N/N=C/c4ccc(/C=C/c5cn6ccccc6[n+]5C)cc4)cc3)cc2)cn2ccccc21 | inactive: > 100 µM |
| N=c1nc2n(cc1F)[C@@H]1O[C@H](CO)[C@@H](O)[C@@H]1O2 | inactive: > 100 µM |
| CC(=O)OC1CCCn2c1nc1c2C(=O)C(C)=C(N2CC2)C1=O (stereo not drawn) | active: 0.53 µM |
